The record followed here is publication PMC9632837.

Results are given in words; binding and its absence hold for the method and conditions named. Some entries that bind do so weakly or less than the wild type.

Holding throughout (assay): two-hybrid; Matchmaker Gold Yeast Two-Hybrid System; pGBKT7 baits and pGADT7 preys co-transformed into Y2HGold cells; transformants from SD-Leu-Trp restreaked onto SD-Leu-Trp-His-Ade plates
Test [1] addresses T1, LIN-2A (LIN-2/CASK, long isoform), full length (C. elegans) (UniProt P54936).
T1 sequence: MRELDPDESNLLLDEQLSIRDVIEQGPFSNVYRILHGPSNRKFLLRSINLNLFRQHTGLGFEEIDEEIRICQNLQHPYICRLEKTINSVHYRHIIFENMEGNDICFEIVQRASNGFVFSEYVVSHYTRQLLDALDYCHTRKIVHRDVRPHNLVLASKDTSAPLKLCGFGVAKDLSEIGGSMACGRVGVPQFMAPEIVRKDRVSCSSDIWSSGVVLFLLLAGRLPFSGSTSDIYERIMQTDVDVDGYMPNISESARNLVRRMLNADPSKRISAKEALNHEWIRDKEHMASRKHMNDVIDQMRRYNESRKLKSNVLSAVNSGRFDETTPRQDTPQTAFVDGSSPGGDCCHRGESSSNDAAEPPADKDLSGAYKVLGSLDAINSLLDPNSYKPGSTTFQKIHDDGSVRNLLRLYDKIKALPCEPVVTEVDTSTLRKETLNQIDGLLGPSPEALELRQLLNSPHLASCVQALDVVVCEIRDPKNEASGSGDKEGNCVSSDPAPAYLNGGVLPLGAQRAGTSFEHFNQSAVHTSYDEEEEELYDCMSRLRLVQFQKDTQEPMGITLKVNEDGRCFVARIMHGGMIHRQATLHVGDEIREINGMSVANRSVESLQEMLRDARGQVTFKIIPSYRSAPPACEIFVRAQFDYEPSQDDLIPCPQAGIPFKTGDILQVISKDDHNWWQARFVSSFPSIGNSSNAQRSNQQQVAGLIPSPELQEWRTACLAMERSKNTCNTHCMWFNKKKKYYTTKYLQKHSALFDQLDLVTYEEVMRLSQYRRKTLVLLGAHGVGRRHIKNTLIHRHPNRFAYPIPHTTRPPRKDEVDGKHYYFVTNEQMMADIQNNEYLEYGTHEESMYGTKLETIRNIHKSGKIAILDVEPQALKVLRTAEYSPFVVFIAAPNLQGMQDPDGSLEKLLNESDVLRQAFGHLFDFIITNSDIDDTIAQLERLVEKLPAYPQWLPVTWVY

Test [2] has as its target T2, LIN-2A PDZ domain (C. elegans) (UniProt P54936).
T2 sequence: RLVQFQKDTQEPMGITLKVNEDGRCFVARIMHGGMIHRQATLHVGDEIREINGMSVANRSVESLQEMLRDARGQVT

Test [3] has as its target T3, LIN-2A SH3 domain (C. elegans) (UniProt P54936).
T3 sequence: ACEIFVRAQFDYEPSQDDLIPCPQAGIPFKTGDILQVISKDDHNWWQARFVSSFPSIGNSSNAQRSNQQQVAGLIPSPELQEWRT

B1: ACR-16 second cytoplasmic loop, TM3-4 (aa315-472) (domain or fragment, UniProt P48180 315-472)
chain: NLHYRTPETHDMGPWTRNLLLYWIPWILRMKRPGHNLTYASLPSLFSTKPNRHSESLIRNIKDNEHSLSRANSFDADCRLNQYIMTQSVSNGLTSLGSIPSTMISSNGTTTDVSQQATLLILHRIYHELKIVTKRMIEGDKEEQACNNWKFAAMVVDR
In the case of B1, the values for the binding entry in test [1], in test [2] and in test [3] were “binds”, “no binding” and “binds”, respectively.

B2: UNC-29 second cytoplasmic loop, TM3-4 (aa318-445) (domain or fragment, UniProt P48181 318-445)
chain: YFRGPRTHRMPQWVRVVFLQFLPKLVCMKRPKSASERSAVRSGMAQLPGVGQFTLSPSAHHPLCPSADDRTTTIRNTASNETSAYYPLSTDALRAIDAIEYITEHLKRDEQHKSFRDDWKYVAMIIDR
In the case of B2, the binding result in test [1] and in test [3] was “binds” in each case.
